The values below come from the supplement of paper PMC11741623.

B1: ERGIC2, Q96RQ1 (protein)
chain: MRRLNRKKTLSLVKELDAFPKVPESYVETSASGGTVSLIAFTTMALLTIMEFSVYQDTWMKYEYEVDKDFSSKLRINIDITVAMKCQYVGADVLDLAETMVASADGLVYEPTVFDLSPQQKEWQRMLQLIQSRLQEEHSLQDVIFKSAFKSTSTALPPREDDSSQSPNACRIHGHLYVNKVAGNFHITVGKAIPHPRGHAHLAALVNHESYNFSHRIDHLSFGELVPAIINPLDGTEKIAIDHNQMFQYFITVVPTKLHTYKISADTHQFSVTERERIINHAAGSHGVSGIFMKYDLSSLMVTVTEEHMPFWQFFVRLCGIVGGIFSTTGMLHGIGKFIVEIICCRFRLGSYKPVNSVPFEDGHTDNHLPLLENNTH
B2: TEX30, Q5JUR7 (protein)
chain: MSHTEVKLKIPFGNKLLDAVCLVPNKSLTYGIILTHGASGDMNLPHLMSLASHLASHGFFCLRFTCKGLNIVHRIKAYKSVLNYLKTSGEYKLAGVFLGGRSMGSRAAASVMCHIEPDDGDDFVRGLICISYPLHHPKQQHKLRDEDLFRLKEPVLFVSGSADEMCEKNLLEKVAQKMQAPHKIHWIEKANHSMAVKGRSTNDVFKEINTQILFWIQEITEMDKKCH
B3: A4GNT, Q9UNA3 (protein)
chain: MRKELQLSLSVTLLLVCGFLYQFTLKSSCLFCLPSFKSHQGLEALLSHRRGIVFLETSERMEPPHLVSCSVESAAKIYPEWPVVFFMKGLTDSTPMPSNSTYPAFSFLSAIDNVFLFPLDMKRLLEDTPLFSWYNQINASAERNWLHISSDASRLAIIWKYGGIYMDTDVISIRPIPEENFLAAQASRYSSNGIFGFLPHHPFLWECMENFVEHYNSAIWGNQGPELMTRMLRVWCKLEDFQEVSDLRCLNISFLHPQRFYPISYREWRRYYEVWDTEPSFNVSYALHLWNHMNQEGRAVIRGSNTLVENLYRKHCPRTYRDLIKGPEGSVTGELGPGNK

Some of the results follow. Interaction screen of human proteins with wild-type SARS-CoV-2 proteins by split-DHFR complementation in yeast, 1 µg/mL methotrexate. Value = fitness of the pair (three or more lineages) minus that of the viral protein without a human partner, on a scale set by negative (0) and fused positive (1) controls, mean of up to three cultures; higher = more likely to interact. Active = false discovery rate below 0.05 (one-sided t-test) in at least one culture. Nearly all pairs are not hits, and differences among them are mostly noise (correlation between cultures about 0.3); most hits were seen in one culture only. Human sequences are the Swiss-Prot entries looked up by gene name; the clone may be another isoform. NSP2 values were corrected by the authors for a growth advantage. Listed are human proteins with a hit and a random twelfth of the others.

In the first assay the target is SARS-CoV-2 E. As to the kind of experiment: yeast fitness gain over the viral ORF with no human partner (scaled fitness); higher = more likely to interact. How it is done:
(§1)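 Split mouse DHFR complementation in pooled diploid yeast: human ORFeome clones carry one fragment and viral ORFs the other; barcoded lineages compete in 1 µg/mL methotrexate and fitness is read by barcode sequencing in up to three cultures.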
Take B1: the yeast fitness gain is inactive: 0.0266.
The same measure, in the same setting: in the case of B2 it was inactive: -0.0242; in that of B3, inactive: -0.0235.

The next assay deals with SARS-CoV-2 N. The description is as above. The procedure: as §1
With B1, the yeast fitness gain is inactive: -0.0747.
Still for that read-out and setting: in the case of B2 it was inactive: 0.201.
Regarding B3, the yeast fitness gain is inactive: 0.0441.

A further assay concerns the target SARS-CoV-2 NSP1. The assay is described as above. How it is done:
as §1
For the molecule B1, the yeast fitness gain is inactive: -0.0665.
Still for that read-out and setting: the value for B2 was inactive: 0.0317.
Same read-out and setting: in the case of B3 it was inactive: 0.00443.

In the next assay the target is SARS-CoV-2 NSP14. The assay is described as above. The procedure:
as §1
As for B1, the yeast fitness gain is inactive: -0.0256.
On the same count and under the same terms, the value for B2 was inactive: -0.0985; that for B3 was inactive: -0.0763.

A further assay concerns the target SARS-CoV-2 NSP15. The assay is described as above. The procedure:
as §1
Consider B1, for which the yeast fitness gain is inactive: -0.00907.
B2: the yeast fitness gain is inactive: -0.0294.
On to B3, for which the yeast fitness gain is inactive: 0.0166.

The target in another assay is SARS-CoV-2 NSP16. The description is as above. The procedure:
as §1
On to B1, for which the yeast fitness gain was inactive: 0.105.
Consider B2, for which the yeast fitness gain was inactive: 0.0653.
Same read-out and setting: in the case of B3 it was inactive: 0.0376.

The target in another assay is SARS-CoV-2 NSP5. The description is as above. The procedure:
as §1
With B1, the yeast fitness gain was inactive: -0.0469.
The same measure, in the same setting: in the case of B2 it was inactive: 0.00067.
On the same count and under the same terms, in the case of B3 it was inactive: 0.0049.

Another assay addresses SARS-CoV-2 NSP6. Described as above. How it is done: as §1
On to B1, for which the yeast fitness gain was inactive: 0.0209.
On the same count and under the same terms, the value for B2 was inactive: 0.0206; that for B3 was inactive: -0.0553.

For a further assay, the target named is SARS-CoV-2 NSP7. The assay is described as above. How it is done:
as §1
Consider B1, for which the yeast fitness gain is inactive: -0.00567.
On the same count and under the same terms, the value for B2 was inactive: 0.0405.
With B3, the yeast fitness gain was inactive: -0.0554.

The target in the next assay is SARS-CoV-2 NSP8. Described as above. How it is done:
as §1
B1: the yeast fitness gain is inactive: -0.0211.
As for B2, the yeast fitness gain was inactive: -0.056.
Same read-out and setting: the value for B3 was inactive: -0.0745.

The target of a further assay is SARS-CoV-2 ORF10. The description is as above. How it is done: as §1
In the case of B1, the yeast fitness gain is inactive: -0.0601.
B2: the yeast fitness gain was inactive: -0.0425.
In the case of B3, the yeast fitness gain was inactive: -0.0291.

The target of the next assay is SARS-CoV-2 ORF3A. The assay is described as above. The procedure: as §1
Regarding B1, the yeast fitness gain is inactive: 0.0556.
Still for that read-out and setting: in the case of B2 it was inactive: -0.132.

The target in a further assay is SARS-CoV-2 ORF3B. The description is as above. How it is done: as §1
For the molecule B1, the yeast fitness gain was inactive: 0.0161.
The same measure, in the same setting: in the case of B2 it was inactive: 0.0358.
Same read-out and setting: the value for B3 was inactive: 0.0419.

In a further assay the target is SARS-CoV-2 ORF7B. Described as above. How it is done:
as §1
Turning to B1, the yeast fitness gain was inactive: 0.0584.
Still for that read-out and setting: in the case of B2 it was inactive: -0.0644; in that of B3, inactive: -0.0414.

The target in a further assay is SARS-CoV-2 ORF9Bwu (the 73-codon ORF). Described as above. The procedure:
as §1
Consider B1, for which the yeast fitness gain was inactive: -0.0161.
Still for that read-out and setting: in the case of B2 it was inactive: 0.0476; in that of B3, inactive: -0.0388.

Another assay deals with SARS-CoV-2 S. The description is as above. How it is done:
as §1
Turning to B1, the yeast fitness gain is inactive: 0.0278.
Same read-out and setting: in the case of B2 it was inactive: -0.0859.
On the same count and under the same terms, in the case of B3 it was inactive: -0.0248.

A further assay addresses SARS-CoV-2 M. Described as above. How it is done: as §1
On to B2, for which the yeast fitness gain is inactive: 0.0467.
Regarding B3, the yeast fitness gain is inactive: 0.0502.

The target of another assay is SARS-CoV-2 NSP10. The description is as above. How it is done:
as §1
As to B2, the yeast fitness gain is inactive: -0.00713.
Regarding B3, the yeast fitness gain is inactive: 0.036.

Another assay deals with SARS-CoV-2 NSP12. The assay is described as above. How it is done:
as §1
As for B2, the yeast fitness gain is inactive: -0.0412.
Still for that read-out and setting: in the case of B3 it was inactive: -0.0551.

The next assay deals with SARS-CoV-2 NSP13. Described as above. How it is done: as §1
Regarding B2, the yeast fitness gain was inactive: -0.0123.
Consider B3, for which the yeast fitness gain is inactive: -0.00901.

Another assay concerns the target SARS-CoV-2 NSP2. The assay is described as above. How it is done:
as §1
With B2, the yeast fitness gain was inactive: -0.118.
Still for that read-out and setting: the value for B3 was inactive: -0.104.

The next assay deals with SARS-CoV-2 NSP4. The assay is described as above. The procedure: as §1
Turning to B2, the yeast fitness gain is inactive: 0.0828.

For a further assay, the target named is SARS-CoV-2 NSP9. The assay is described as above. How it is done: as §1
As for B2, the yeast fitness gain was inactive: -0.0323.
The same measure, in the same setting: in the case of B3 it was inactive: 0.0184.

A further assay addresses SARS-CoV-2 ORF6. Described as above. How it is done: as §1
Turning to B2, the yeast fitness gain was inactive: -0.0119.
Still for that read-out and setting: in the case of B3 it was inactive: 0.0178.

Another assay concerns the target SARS-CoV-2 ORF7A. The assay is described as above. The procedure:
as §1
As to B2, the yeast fitness gain is inactive: -0.00959.
Still for that read-out and setting: in the case of B3 it was inactive: -0.0668.

A further assay concerns the target SARS-CoV-2 ORF8. The description is as above. How it is done: as §1
Regarding B2, the yeast fitness gain was inactive: 0.0513.
B3: the yeast fitness gain is inactive: -0.0898.

The next assay has as its target SARS-CoV-2 ORF9B. The description is as above. How it is done:
as §1
As for B2, the yeast fitness gain is inactive: 0.0125.
The same measure, in the same setting: in the case of B3 it was inactive: -0.0239.
